US9040542B2, “Solid forms of gyrase inhibitor (R)-1-ethyl-3-[6-fluoro-5-[2-(1-hydroxy-1-methyl-ethyl)pryimidin-5-yl]-7-(tetrahydrofuran-2-yl)-1H-benzimidazol-2-yl]urea” (priority 2011, dated 2015)
In brackets after ≈: the same amount, converted by molar mass.

Tested on: Haemophilus influenzae (Rd1 KW20) ATCC 51907
Experiment: MIC, Protocol 2 microdilution broth, Gram negatives
Assay type: cell-based

With CCNC(=O)Nc1nc2cc(-c3cnc(C(C)(C)O)nc3)c(F)c([C@H]3CCCO3)c2[nH]1 [Compound 24, 1-ethyl-3-[6-fluoro-5-[2-(1-hydroxy-1-methyl-ethyl)pyrimidin-5-yl]-7-[(2R)-tetrahydrofuran-2-yl]-1H-benzimidazol-2-yl]urea] the MIC was 1.3 µg/mL (≈ 3.03 µM).
